Assay results as given in the supplement of paper PMC4604168 (melanoma cell lines).
The other results are listed elsewhere or left out. Repeats are few or missing, and single values can be far off.

Legend:
Assay in all cases: cell count relative to DMSO control; melanoma cells; higher = more viable cells
Details in all cases: library dose: standard library concentration; 72 h
G361 = tested on: G361
IPC-298 = tested on: IPC-298
IST-MEL1 = tested on: IST-MEL1
LB2518-MEL = tested on: LB2518-MEL
LOXIMVI = tested on: LOXIMVI
MEL-HO = tested on: MEL-HO
MZ2-MEL = tested on: MZ2-MEL
MeWo = tested on: MeWo
RPMI7951 = tested on: RPMI7951
RVH-421 = tested on: RVH-421
SkMel28 = tested on: SkMel28
SkMel2 = tested on: SkMel2
SkMel30 = tested on: SkMel30
SkMel5 = tested on: SkMel5
UACC257 = tested on: UACC257
UACC62 = tested on: UACC62
WM115 = tested on: WM115
WM1716 = tested on: WM1716
WM1745 = tested on: WM1745
WM3526 = tested on: WM3526
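Also: cells treated in 1,536-well plates, then fixed and DAPI-stained, with nuclei counted from automated high-throughput microscope images.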

| Structure (SMILES) | cell count (G361) [%] | cell count (IPC-298) [%] | cell count (IST-MEL1) [%] | cell count (LB2518-MEL) [%] | cell count (LOXIMVI) [%] | cell count (MEL-HO) [%] | cell count (MZ2-MEL) [%] | cell count (MeWo) [%] | cell count (RPMI7951) [%] | cell count (RVH-421) [%] | cell count (SkMel28) [%] | cell count (SkMel2) [%] | cell count (SkMel30) [%] | cell count (SkMel5) [%] | cell count (UACC257) [%] | cell count (UACC62) [%] | cell count (WM115) [%] | cell count (WM1716) [%] | cell count (WM1745) [%] | cell count (WM3526) [%] |
| --- | --- | --- | --- | --- | --- | --- | --- | --- | --- | --- | --- | --- | --- | --- | --- | --- | --- | --- | --- | --- |
| O=C(O)[C@@H]1[O][Sb](=[O])([O][Sb]2(=[O])[O][C@H]([C@H](O)CO)[C@H](O)[C@H](C(=O)O)[O]2)[O][C@H]([C@H](O)CO)[C@@H]1O (stereo not given in full) [stibogluconate] + Clc1ccc(Nc2nnc(Cc3ccncc3)c3ccccc23)cc1 [vatalanib] (first compound 10 µM, partner dose 10 µM) | 68 | 73.1 | 69.4 | 109 | 73.3 | 48.8 | 69.9 | 67 | 82.4 | 78.3 | 86.5 | 92.7 | 98.8 | 63.6 | 74.9 | 68.9 | 82.9 | 78.7 | 88 | 72.2 |
| Cn1nnc2c(C(N)=O)ncn2c1=O [temozolomide] + CO[C@@H]1[C@H](N(C)C(=O)c2ccccc2)C[C@H]2O[C@]1(C)n1c3ccccc3c3c4c(c5c6ccccc6n2c5c31)C(=O)NC4 [Midostaurin] (first compound 10 µM, partner dose 0.4 µM) | 44.3 | 47.9 | 43.3 | 52.9 | 49.3 | 86.3 | 47.2 | 68.6 | 31.2 | 58.2 | 39.2 | 39.6 | 47.5 | 47.1 | 62.2 | 44.2 | 44.5 | 40.1 | 32 | 74.6 |
| O=C(Nc1cc(C(F)(F)F)cc(C(F)(F)F)c1)c1cc(Cl)ccc1O + C=CCNC1=C2C[C@@H](C)C[C@H](OC)[C@H](O)[C@@H](C)/C=C(\C)[C@H](OC(N)=O)[C@@H](OC)/C=C\C=C(/C)C(=O)NC(=CC1=O)C2=O [Tanespimycin] (first compound 0.08 µM, partner dose 0.01 µM) | 70.7 | 94.4 | 54.7 | 93.2 | 74.1 | 72 | 83.8 | 73.9 | 32.7 | 67.2 | 77.1 | 95.8 | 113 | 86.5 | 93.7 | 56.6 | 34.4 | 76.5 | 56.7 | 86.4 |
| O=C(O)[C@@H]1[O][Sb](=[O])([O][Sb]2(=[O])[O][C@H]([C@H](O)CO)[C@H](O)[C@H](C(=O)O)[O]2)[O][C@H]([C@H](O)CO)[C@@H]1O (stereo not given in full) [stibogluconate] + CO[C@H]1C[C@@H]2CC[C@@H](C)[C@@](O)(O2)C(=O)C(=O)N2CCCC[C@H]2C(=O)O[C@H]([C@H](C)C[C@@H]2CC[C@@H](OCCO)[C@H](OC)C2)CC(=O)[C@H](C)/C=C(\C)[C@@H](O)[C@@H](OC)C(=O)[C@H](C)C[C@H](C)/C=C/C=C/C=C/1C [everolimus] (first compound 10 µM, partner dose 0.1 µM) | 59.9 | 72.6 | 87.6 | 62.3 | 114 | 66.1 | 80.7 | 74.6 | 113 | 148 | 42.2 | 65.3 | 59.7 | 65.8 | 97.4 | 74.7 | 68.6 | 89 | 95.5 | 66.4 |
| Cn1nnc2c(C(N)=O)ncn2c1=O [temozolomide] + OCCn1cc(-c2cnc3nnn(Cc4ccc5ncccc5c4)c3n2)cn1 [PF04217903] (first compound 10 µM, partner dose 5 µM) | 97 | 80.8 | 76.2 | 105 | 76 | 89.2 | 94.8 | 96.8 | 101 | 110 | 50.4 | 105 | 68 | 110 | 122 | 77.7 | 123 | 80.7 | 79 | 108 |
| O=C(O)c1ccc2c(c1)nc(Nc1cccc(Cl)c1)c1ccncc12 + CC1(C)NC(=O)N(c2ccc([N+](=O)[O-])c(C(F)(F)F)c2)C1=O [nilutamide] (first compound 2 µM, partner dose 5 µM) | 72.5 | 96.6 | 73.9 | 126 | 70.1 | 56.4 | 85.3 | 82 | 86.6 | 92.5 | 98.5 | 77 | 76.1 | 84.7 | 109 | 77.7 | 95.5 | 114 | 80.2 | 75.5 |
| O=C(O)[C@@H]1[O][Sb](=[O])([O][Sb]2(=[O])[O][C@H]([C@H](O)CO)[C@H](O)[C@H](C(=O)O)[O]2)[O][C@H]([C@H](O)CO)[C@@H]1O (stereo not given in full) [stibogluconate] + CCCS(=O)(=O)Nc1ccc(F)c(C(=O)c2c[nH]c3ncc(Cl)cc23)c1F [PLX4720] (first compound 10 µM, partner dose 0.4 µM) | 90.4 | 57.9 | 89.5 | 93.3 | 101 | 90.7 | 85.3 | 102 | 113 | 83.3 | 35 | 83.5 | 90.6 | 65.8 | 103 | 58.1 | 84.9 | 62.3 | 85.5 | 53.6 |
| O=C(O)c1ccc2c(c1)nc(Nc1cccc(Cl)c1)c1ccncc12 + Cc1cc(N2CCOCC2)cc2[nH]c(-c3c(NC[C@@H](O)c4cccc(Cl)c4)cc[nH]c3=O)nc12 [BMS536924] (first compound 2 µM, partner dose 1 µM) | 62.2 | 79.9 | 64.9 | 86.3 | 41.1 | 48.9 | 82.9 | 79.2 | 76.1 | 82.4 | 59.7 | 66.8 | 60.4 | 82.2 | 100 | 104 | 111 | 94.2 | 61.3 | 48.3 |
